Test results as given in PubChem BioAssay AID1159614 (National Center for Advancing Translational Sciences (NCATS), 2016).
About 65 (0.1%) of roughly 45,000 compounds were called active. Calls come from the whole dose curve; as a rule, active = well fitted activation curve with a large enough effect; inconclusive = small, poorly fitted or top-dose-only effect; inactive = no such curve, though single readings can be large or run the other way. The list shows a part of the results.

biological target: Galactocerebrosidase (Homo sapiens) (UniProt P54803); experiment: A Novel Cell-Based Assay to Identify Small Molecules for B -Galactocerebrosidase; conditions: 145M-Twi-hGALC-G270D cells (Twitcher mouse brain line with human GALC G270D), HMU-beta-Gal fluorescence, 48 h; series mostly up to 57.5 µM; activation: at the top concentration; note: 0% is about no effect; nearly all actives have a fitted effect of over 65% in size
Method in brief: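 Fluorescence readout: HMU-β-gal cleavage by mutant GALC (0.1 mM final, citrate/phosphate pH 5.2 with 1 mg/mL taurocholate), stopped with carbonate/bicarbonate plus Triton X-100. Cells: murine Twitcher 145M-Twi expressing human G270D GALC; qHTS for activators.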

Chain of UniProt P54803 (P54803 whole entry, looked up): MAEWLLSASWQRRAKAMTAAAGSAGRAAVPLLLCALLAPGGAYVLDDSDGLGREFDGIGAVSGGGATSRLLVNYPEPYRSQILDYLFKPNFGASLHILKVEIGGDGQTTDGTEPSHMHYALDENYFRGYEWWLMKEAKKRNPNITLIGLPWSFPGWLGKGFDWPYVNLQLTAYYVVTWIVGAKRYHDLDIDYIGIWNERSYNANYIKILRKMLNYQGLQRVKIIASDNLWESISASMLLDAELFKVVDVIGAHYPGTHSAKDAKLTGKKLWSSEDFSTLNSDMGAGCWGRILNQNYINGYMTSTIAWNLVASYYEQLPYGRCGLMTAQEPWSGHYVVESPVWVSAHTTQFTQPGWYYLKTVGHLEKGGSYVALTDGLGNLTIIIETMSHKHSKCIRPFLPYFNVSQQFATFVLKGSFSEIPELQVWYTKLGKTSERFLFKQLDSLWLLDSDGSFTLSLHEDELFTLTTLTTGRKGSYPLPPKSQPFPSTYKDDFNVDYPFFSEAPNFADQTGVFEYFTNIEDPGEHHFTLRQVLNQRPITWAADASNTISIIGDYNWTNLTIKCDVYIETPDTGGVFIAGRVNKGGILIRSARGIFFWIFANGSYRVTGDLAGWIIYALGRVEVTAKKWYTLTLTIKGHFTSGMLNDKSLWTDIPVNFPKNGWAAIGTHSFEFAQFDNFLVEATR

activation, inactive:
Cc1ccccc1NC(=O)CN1C(=O)C2(SCC(=O)N2c2ccc(F)cc2)c2ccccc21 (stereo unspecified) -30.1%, CC1=C(c2ccc(C)cc2)S(=O)(=O)N(Cc2ccc(C(=O)NCc3ccccc3)cc2)C1=O -17.3%, O=C(NCc1ccc(F)cc1)c1ccc2c(c1)N(Cc1c(F)cccc1Cl)C(=O)CS2 -2.83%, Cc1cc(C)c2c(=O)cc(C(=O)Nc3sc4c(c3C#N)CCCC4)oc2c1 -7.36%, COc1cccc(-n2ccn(CC(=O)Nc3ccccc3F)c(=O)c2=O)c1 -10.4%, O=C(Nc1ccc(F)c(F)c1)c1cc(S(=O)(=O)N2CCc3ccccc32)ccc1F -6.17%, COc1ccc2c(c1)c(CC(=O)Nc1cccc(F)c1C)c(C)n2C(=O)c1ccc(Cl)cc1 -9.03%, Cc1ccc(CNC(=O)CSCc2nc(-c3ccc(Cl)cc3)oc2C)cc1 -14.6%, CCc1ccccc1NC(=O)Cn1cc(C(=O)c2ccc(Cl)cc2)c(=O)c2ccc(C)nc21 -15.7%, COc1ccc(C2=C(C)C(N3CCC(C(=O)NCc4ccco4)CC3)=NS2(=O)=O)cc1 -7.32%, Cc1ccc(CNS(=O)(=O)c2cc(C(=O)Nc3ccc(C(C)C)cc3)ccc2F)cc1 -8.23%, CCOc1ccc(NC(=O)N2CCC(CN3CCC(C)CC3)CC2)cc1 -6.09%, Cc1cccc(N2CCN(C(=O)COCc3cc(-c4ccc5c(c4)OCO5)on3)CC2)c1C -8.9%, Cc1ccccc1-c1nc2c3c(-c4ccccc4)c(-c4ccccc4)oc3ncn2n1 -11.9%, COc1ccc(-c2cc(C(=O)NCCc3ccc(Cl)cc3)[nH]n2)cc1 -7.48%, CCOC(=O)c1[nH]c2ccccc2c1NC(=O)c1cc(OC)cc(OC)c1 -17.9%, COc1cccc(-c2ccnc3c(-c4ccccc4)c(C)nn23)c1 -9.11%, CCn1c(=O)n(-c2ccc(F)c(Cl)c2)c(=O)c2sc3ccccc3c21 -7.98%, Cc1ccc(CN(C(=O)c2ccc(F)cc2)c2ccccn2)o1 -20.5%, Cc1ccc(CNc2nc3c(c(=O)n(C)c(=O)n3C)n2Cc2ccc(Cl)cc2)cc1 -12.4%, COC(=O)c1ccccc1NC(=O)COCc1cc(-c2cccs2)on1 -17.2%, COc1ccccc1N1CCN(C(=O)c2cc3c(=O)n(Cc4cccs4)ccc3nc2C)CC1 -14.5%, CCOC(=O)N1CCc2c(sc3c2c(=O)n(-c2ccc(CC)cc2)c(=O)n3Cc2ccc(F)cc2Cl)C1 -10.8%, COc1ccc(N2CCN(CCCNC(=O)c3c(C)nn(-c4ccc(F)cc4)c3-n3cccc3)CC2)cc1 -30.5%, COc1ccc(S(=O)(=O)N(CC(=O)NC(C)c2ccccc2)c2ccc(C)cc2)cc1OC (stereo unspecified) -11.2%, CCc1ccc(NC(=O)Cn2nnc(-c3ccccc3N)n2)cc1 -5.52%, Cc1cccc(N2CCN(c3ccc4cc(S(=O)(=O)N5CCC(C)CC5)ccc4n3)CC2)c1C -20.1%, CC(C)C(=O)Nc1nnc(S(=O)(=O)N2CCc3ccccc32)s1 -6.63%, CCOc1ccc(NC(=O)Cn2nc(Cc3cccnc3)c3ccccc3c2=O)cc1 -11.7%, COc1ccccc1NC(=O)N1CCN(c2ccc3nnc(-c4ccc(F)cc4)n3n2)CC1 -10.1%, CCOc1ccc2nc(N3CCCC(C(=O)NCCc4ccc(Cl)cc4)C3)sc2c1 (stereo unspecified) -3.16%, CCOC(=O)c1c(NC(=O)Cc2coc3ccc(CC)cc23)sc2c1CCC2 -10.1%, Cc1ccc(-n2ncc3c(NCCCn4ccnc4)ncnc32)cc1C -5.97%, Cc1ccc(OCC(=O)Nc2ccc(OCc3cc(=O)n4c(C)csc4n3)cc2)cc1C -8%, CCc1ccc(NC(=O)CC(NCc2cccnc2)C(=O)O)cc1 (stereo unspecified) -9.35%, O=c1oc2ccccc2cc1-c1cn2cc(Cc3ccc(F)cc3)sc2n1 -7.75%, CCOC(=O)c1c(C)oc2ncnc(Nc3cccc(C(F)(F)F)c3)c12 3.61%, Cc1nc(-c2ccc(Cl)cc2)sc1CCNC(=O)C(=O)Nc1ccc2c(c1)OCO2 -12.6%, CSc1ccc(CCNC(=O)Cn2nc(C)n3c(cc4sccc43)c2=O)cc1 -13.8%, Cn1c(=O)c2c(nc(SCC(=O)Nc3ccccc3F)n2Cc2ccccc2F)n(C)c1=O -14.6%, COc1ccc(CNC(=O)C(=O)NCC(c2ccco2)S(=O)(=O)c2ccc(Cl)cc2)cc1 (stereo unspecified) -39.1%, CCOC(=O)c1cccc(NC(=O)Cn2ncc3c(=O)oc4ccccc4c32)c1 -18.7%, CCOc1ccccc1Nc1sc(C(=O)c2ccccc2)c(N)c1C(=O)Nc1ccc(F)cc1 17.8%, Cc1ccc(Cn2ccnc2SCC(=O)NCc2ccccc2)cc1 -13.3%, CC(C)COc1ccc(C(=O)N2CCCCC2CCN2CCOCC2)cc1 (stereo unspecified) -5.68%, COc1ccc(OC)c(CCNC(=O)c2nc(-c3ccc(Cl)cc3)n3c2CCCCC3)c1 -24.9%, COc1cccc(NC(=O)Cn2c(=O)oc3cc(S(=O)(=O)N4CCCCC4)ccc32)c1 -45.4%, Cc1ccc(C(=O)c2oc3ccccc3c2NC(=O)COc2ccc(Cl)c(C)c2)cc1 -9.3%, Cc1c(C)n(Cc2ccc(Cl)cc2)c2ccc(C(=O)N3CCN(c4ccccc4F)CC3)cc12 -15.2%, Cc1ccc(C(=O)CSc2nc(C)cc(C)c2C(=O)Nc2cccc(C)c2)cc1 -13.1%, COc1cccc(CNC(=O)C2CCCN(c3nnc(-n4c(C)ccc4C)s3)C2)c1OC (stereo unspecified) -12.6%, CSc1nn(Cc2ccc(F)cc2)c(N(C(C)=O)C(C)=O)c1S(=O)(=O)c1ccccc1 10%, CCc1cccc(CC)c1NC(=O)CN(C)S(=O)(=O)c1ccc2c(c1)n(C)c(=O)c(=O)n2C -12%, CCC(=O)N1CCc2cc(Br)cc(S(=O)(=O)N3CCCC(C(=O)NCc4ccc(C)cc4)C3)c21 (stereo unspecified) -9.31%, Cc1ccc(-n2c3nc(=O)n(C)c(=O)c-3cc3ccccc32)c(C)c1 12.6%, O=C(Nc1ccc(OC(F)(F)F)cc1)c1cc(-c2ccc(Cl)cc2)on1 -9.17%, Cc1nc2c3ccccc3nc(NNC(=O)CCC(=O)N3CCN(c4ccc(F)cc4)CC3)n2n1 -10.8%, CC(=O)N1CCCc2ccc(NC(=O)c3ccc(OC(C)C)cc3)cc21 -3.32%, Cc1ccc2nc(COc3ccccc3NC(=O)Nc3ccc(F)c(Cl)c3)cc(=O)n2c1 -11.2%, Cc1cccc(NC(=O)CSc2cn(CC(=O)N3CCOCC3)c3ccccc23)c1C -5.74%, CCSc1nc(-c2ccc(OC)cc2)nc2c1Cc1c(CO)cnc(C)c1O2 -8.11%
